The list shows a part of the results. These are noisy estimates, calculated here from bound and input reads.
biological target: T1, Pho4 (S. cerevisiae) (UniProt P07270); assay: relative binding free energy (BET-seq); higher = weaker binding; settings: reference: library average
T1 sequence: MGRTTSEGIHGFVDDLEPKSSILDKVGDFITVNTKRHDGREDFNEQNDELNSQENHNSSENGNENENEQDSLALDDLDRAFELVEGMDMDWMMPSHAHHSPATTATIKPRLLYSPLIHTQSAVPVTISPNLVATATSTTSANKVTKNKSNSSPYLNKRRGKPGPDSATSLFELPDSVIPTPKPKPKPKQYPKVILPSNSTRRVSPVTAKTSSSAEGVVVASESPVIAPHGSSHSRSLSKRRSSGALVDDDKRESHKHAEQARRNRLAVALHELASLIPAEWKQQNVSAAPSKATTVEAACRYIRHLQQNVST

Sequence | relative binding free energy [kcal/mol]
CGTTACACGTGATGTA | 0.09
ATGTGCACGTGTTAAT | -0.01
TTAAGCACGTGGTGAG | -0.12
AAGTGCACGTGTACTT | 0.08
CTATTCACGTGGGTTG | 0.07
TGTTTCACGTGACTCT | 0.25
GTCTGCACGTGTGTTG | 0.05
GGGGGCACGTGTTCCG | -0.13
TATATCACGTGTTTGC | 0.05
TTGTACACGTGCAGTA | 0.15
GTTTTCACGTGACTGA | 0.52
GCTTACACGTGTTAGG | 0.16
TGGGTCACGTGCTATT | 0.08
ATAGGCACGTGATATG | -0.15
TGGTTCACGTGTATGG | 0.31
GTGCTCACGTGGGGCT | 0.12
GTAAGCACGTGTACGG | -0.07
GTGTTCACGTGAATTA | 0.36
TATCTCACGTGGTTTG | 0.21
TGGAACACGTGAATTT | 0.16
CTTATCACGTGAGAGG | 0.25
TAAGTCACGTGTTAGC | 0.07
TTTCACACGTGAGGAG | 0.34
GAGATCACGTGGTGCA | 0.15
TAGGTCACGTGAGATT | 0.33

Sequence | relative binding free energy [kcal/mol]
CGGGGCACGTGTTTGT | -0.21
GGCTTCACGTGTTGTA | 0.21
TGTAGCACGTGTTTTG | -0.02
AATGCCACGTGGTGTT | -0.31
GGTATCACGTGTGAAG | 0.22
AGGTTCACGTGAGTTG | 0.41
GATAACACGTGTTGAT | 0.22
GATTGCACGTGCAGGG | 0.04
AGAGTCACGTGTATTA | 0.06
ATTTTCACGTGTCAGA | 0.33
CTTGGCACGTGGAGAT | -0.14
CGCTGCACGTGAGGGT | 0.17
TGAATCACGTGGGTAT | -0.01
GGGGACACGTGAGTTG | 0.19
AAAGGCACGTGTAGGT | -0.14
TTTGACACGTGATATT | 0.11
TAGAGCACGTGTCGCG | -0.09
GTTAGCACGTGGTCAA | -0.07
ATAATCACGTGATCGT | 0.28
TCGAGCACGTGGGTTG | -0.2
GCAGGCACGTGTGGAT | -0.01
TTGTTCACGTGTTACT | 0.2
TCTAACACGTGGGTTG | -0.11
CGTTGCACGTGATAAG | 0.1
TGTTGCACGTGTAACG | 0.04

Sequence | relative binding free energy [kcal/mol]
AATTACACGTGCGTGG | 0.05
CACTGCACGTGTGTGG | 0.07
TTGATCACGTGACGGT | 0.2
AACTTCACGTGTGGAT | 0.28
GTCGTCACGTGGGTCA | 0.05
TTGTGCACGTGCGCGG | -0.26
GAAGGCACGTGGTTTG | -0.19
GGTCGCACGTGGTTTG | -0.12
TTTCACACGTGGGTCG | 0.14
TTAGGCACGTGTTATG | -0.07
ACGCTCACGTGGGGGG | -0.08
GTGTGCACGTGCTTGT | -0.09
TGGTGCACGTGATGGA | 0.1
CGGTACACGTGTGGGG | 0.23
GATATCACGTGATGAT | 0.35
TATGTCACGTGAGCAG | 0.35
TGTTACACGTGATTGC | 0.26
ATGTACACGTGTGGAG | 0.23
TGTGCCACGTGTTAGG | -0.01
GTAGTCACGTGTGCAT | 0.07
TAGAGCACGTGATAGA | 0.03
TGGATCACGTGGTGAT | 0.18
TAGGTCACGTGTGGAG | 0.18
AGTAGCACGTGGTTAG | -0.15
GATGTCACGTGTGGGT | 0.18

Sequence | relative binding free energy [kcal/mol]
AATTTCACGTGAGGTT | 0.36
TAGGTCACGTGAGTTA | 0.34
GGGTTCACGTGTGCAG | 0.21
GATCTCACGTGGTTTT | 0.26
TGAGTCACGTGGCTAG | 0.02
GTGTTCACGTGGGCAT | 0.11
GGTAGCACGTGATATA | 0.11
GTGCACACGTGCGGGG | -0.03
TAGGACACGTGATTGG | 0.32
TGTCGCACGTGGAGGA | -0.19
AAGGTCACGTGGTCCG | 0.09
TTTCGCACGTGGTGGA | -0.06
ACTTACACGTGTGGTT | 0
ATAAACACGTGCGTTT | 0.05
GTTCCCACGTGGGGTG | -0.11
GTGCCCACGTGTTTTG | 0.01
GTATTCACGTGGGTTT | 0.17
TATAGCACGTGGCATT | -0.11
AAGGGCACGTGCGTGT | -0.22
TCAGGCACGTGATGTT | -0.13
AGTTACACGTGGTAGT | -0.03
GATGGCACGTGAGCAG | 0.13
TAAGGCACGTGACGAG | 0.01
TTTTACACGTGTGAAA | 0.24
GGAGTCACGTGGGCGT | 0.04

Sequence | relative binding free energy [kcal/mol]
GTCTTCACGTGTTATA | 0.14
ATGCACACGTGGGGGA | -0.07
GTGTTCACGTGTGTAA | 0.33
TTTGTCACGTGTTGTC | 0.1
TTTAACACGTGCGGGA | 0.08
TGCGTCACGTGATGGA | 0.29
AGAGACACGTGGGGGC | -0.06
GGCGTCACGTGCGTTT | 0.04
ATAGTCACGTGTAGTA | 0.12
GTGATCACGTGTGCGT | 0.11
GGCTGCACGTGGAGTA | 0.03
AAGATCACGTGAGTGG | 0.16
TGTGACACGTGGTGGC | -0.02
GGGGCCACGTGAAGGG | 0.16
TTGTTCACGTGAGAAG | 0.36
CTAGGCACGTGACGGT | -0.04
GCTGGCACGTGATCGT | 0.01
TATGGCACGTGTAGTA | -0.08
GAAGGCACGTGTTGTC | 0.04
AGGGGCACGTGATTGA | -0.06
TGGTGCACGTGCATGT | -0.11
ATGGACACGTGCAGGA | 0.03
GGATTCACGTGGTGCT | 0.15
GAAGGCACGTGTATGT | -0.15
AATTTCACGTGGTTTA | 0.22

Sequence | relative binding free energy [kcal/mol]
AGGGGCACGTGATATC | 0.04
GTGAGCACGTGTATTA | -0.18
AGGTGCACGTGGCTCA | 0.04
GTGAGCACGTGTAGGA | -0.12
CTGGACACGTGGGCGG | -0.06
GGGGGCACGTGGGCCT | -0.36
TGTAGCACGTGGGCAG | -0.26
GGTTGCACGTGGCTAT | -0.01
TGTTCCACGTGTCTTT | 0.06
GAGATCACGTGGGAGG | 0.04
GGGTTCACGTGTTAAC | 0.29
AGTGGCACGTGCTTTT | -0.24
GTTATCACGTGGTGGA | 0.15
AGGGTCACGTGGCCAT | 0.1
ACTATCACGTGGGAGG | 0.07
AGAAGCACGTGATAGG | 0
TTAATCACGTGTTCAG | 0
TTAAACACGTGTGCTG | 0.08
GTATGCACGTGATATT | 0.07
TAATGCACGTGGTAAG | -0.09
ATGGACACGTGGCTGT | -0.07

From the BET-seq Pho4 binding data (Le et al. 2018)
